Source: patent US20160137746A1, “METHODS FOR TREATING HIGH CARDIOVASCULAR RISK PATIENTS WITH HYPERCHOLESTEROLEMIA” (Sanofi Biotechnology, priority 2014, published 2016)

Experiments:
[1] = test system: high cardiovascular risk patients with hypercholesterolemia; assay: ODYSSEY COMBO II: lipid efficacy of alirocumab vs ezetimibe, add-on to maximally tolerated statin; assay type: in vivo, human; details: Week 24
Source text: (§1) Each of the COMBO studies was randomized, double-blinded, and placebo-controlled.
(§2) The primary efficacy endpoint for each study was the difference between treatment arms in the percent change in LDL-C from baseline to Week 24.
(§3) Apo, apolipoprotein; HDL-C, high-density lipoprotein cholesterol; ITT, intent-to-treat; LDL-C, low-density lipoprotein cholesterol; Lp(a), lipoprotein (a); TG, triglycerides.
COMBO II was a Phase 3, randomized, double-blind, active-controlled, parallel-group, multinational 104-week study. The study enrolled high-risk patients with uncontrolled hypercholesterolemia on stable, maximally tolerated daily statin therapy. Unlike COMBO I, with a placebo arm, COMBO II incorporated an active-treatment arm (ezetimibe) with double-dummy design (FIG. 1B) and patients were not allowed to receive any other lipid lowering therapies besides statin and their randomized treatment.
After randomization, patients entered a double-blind, double-dummy treatment period of 104 weeks. […]
With regards to the primary efficacy analysis (ITT approach), the percent change in calculated LDL-C from baseline to Week 24 was analyzed using a mixed-effect model with repeated measures (MMRM) approach.

[2] = test system: high cardiovascular risk patients with hypercholesterolemia; assay: ODYSSEY COMBO I: lipid efficacy of alirocumab vs placebo, add-on to maximally tolerated statin, 52 weeks; assay type: in vivo, human; details: Week 24
Source text: as §1, §2, §3
COMBO I was a Phase 3, randomized, double-blind, placebo-controlled, parallel-group, multicenter, 52-week study.
After randomization, patients entered a double-blind treatment period of 52 weeks. […] Patients randomized to placebo received a 1 ml SC placebo injection from an identical auto-injector.
To maintain blinding, the patient and investigator were not informed of the Week 8 LDL-C levels (or any lipid values after randomization); continuation or up-titration of dose occurred in an automated and blinded manner.
Primary analyses of efficacy endpoints were conducted using an ITT approach (based on the ITT population defined above), including all lipid data, regardless of whether the patient was continuing therapy or not. […]
With regards to the primary efficacy analysis (ITT approach), the percent change in calculated LDL-C from baseline to Week 24 was analyzed using a mixed-effect model with repeated measures (MMRM) approach. […]

## O=C1[C@H](CC[C@H](O)c2ccc(F)cc2)[C@@H](c2ccc(O)cc2)N1c1ccc(F)cc1 [Ezetimibe, ezetimibe, reference compound]
[1]
  Proportion of patients reaching calculated LDL-C <70 mg/dL (1.81 mmol/L), combined estimate: 45.6%

## Alirocumab: human anti-PCSK9 antibody; HCVR SEQ ID NO:1, LCVR SEQ ID NO:6; CDRs SEQ ID NOs 2/3/4/7/8/10
[2]; ITT
  Proportion of patients achieving LDL-C <70 mg/dL (<1.81 mmol/L): 75.0%
[2]; On-treatment
  Proportion of patients achieving LDL-C <70 mg/dL (<1.81 mmol/L): 77.5%
[1]
  Proportion of patients reaching calculated LDL-C <70 mg/dL (1.81 mmol/L), combined estimate: 77%
